Measured values taken from the supplement of paper PMC4166925.
± gives the standard deviation of the averaged measurements. Whole data set: some 33,000 sequences, median “E-score (dimensionless, -0.5 to 0.5)” near -0.046, cut for the highest 2% near 0.36. This is one part of the list.

Each sequence was assayed on T1, SpTbr T-box DNA-binding domain (GST fusion) (assay: PBM E-score of 8-mer (E-score (dimensionless, -0.5 to 0.5)); Tbr is Tbrain of the sea star Patiria miniata (Pm) or the sea urchin Strongylocentrotus purpuratus (Sp); higher = stronger binding preference; most listed sequences are background and not binding sites). Conditions: the construct has about 5 more residues each side.
T1 sequence: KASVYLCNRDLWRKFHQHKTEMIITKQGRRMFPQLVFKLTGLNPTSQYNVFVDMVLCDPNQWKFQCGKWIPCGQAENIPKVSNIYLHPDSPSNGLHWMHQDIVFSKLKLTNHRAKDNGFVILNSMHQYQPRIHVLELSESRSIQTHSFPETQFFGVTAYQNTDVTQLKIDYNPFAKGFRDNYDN
Procedure, shortened: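 Universal Agilent oligonucleotide arrays, made double-stranded by primer extension, were incubated with 200 nM GST-fused Tbr T-box DNA-binding domain in PBS (pH 7.5). The protein was expressed in BL21 E. coli at 20 °C and purified by glutathione affinity chromatography. After scanning and quantification, the Universal PBM Analysis Suite assigned an enrichment E-score to each ungapped 8-mer, averaged over duplicate arrays.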

| Sequence | PBM E-score of 8-mer |
| --- | --- |
| CAACATGC | 0.0294 ± 0.025 |
| CTGTTTTA | -0.0491 ± 0.06 |
| CGAGTGGA | 0.115 ± 0.013 |
| AAAAGGTC | -0.00656 ± 0.018 |
| GCACCGGA | 0.0891 ± 0.066 |
| CCAATACC | -0.127 ± 0.0083 |
| ATCCAAAC | -0.242 ± 0.016 |
| CGGCGCGC | 0.194 ± 0.026 |
| AACCAGCC | -0.167 ± 0.057 |
| AGATTCAC | 0.141 ± 0.025 |
| CAAAAAAA | -0.1537 ± 0.00074 |
| CATCAGCG | 0.103 ± 0.002 |
| TATATGGA | -0.197 ± 0.005 |
| ACGTGTTC | 0.1884 ± 0.00041 |
| TACGCTAA | 0.136 ± 0.044 |
| AGTTCCAC | -0.146 ± 0.019 |
| AACCCCTC | 0.101 ± 0.03 |
| CCGTAGAC | -0.175 ± 0.014 |
| ACCTTCCT | 0.0956 ± 0.015 |
| CAATAACG | 0.0614 ± 0.048 |
| CCAAGTGG | 0.0467 ± 0.03 |
| TATATTCA | 0.0222 ± 0.047 |
| GTATTGCA | -0.123 ± 0.032 |
| CCCGATAA | 0.0927 ± 0.11 |
| TCTGTGAA | 0.329 ± 0.017 |

| Sequence | PBM E-score of 8-mer |
| --- | --- |
| CAGTTATA | -0.0338 ± 0.029 |
| TAGTACCA | 0.000295 ± 0.0026 |
| CGCTCGGA | -0.206 ± 0.05 |
| AGTCGACG | 0.143 ± 0.039 |
| ATTAACTC | 0.0428 ± 0.0027 |
| GCCGTGAA | 0.354 ± 0.018 |
| TGGCGCAA | 0.221 ± 0.016 |
| AGAGCACC | -0.0887 ± 0.0029 |
| GGTGTCTA | 0.292 ± 0.0045 |
| AGGGTAGC | 0.0431 ± 0.0041 |
| GGGTGAAA | -0.0551 ± 0.015 |
| AGATTAAG | -0.176 ± 0.015 |
| CATGCGTC | -0.125 ± 0.021 |
| ATATCTCG | 0.0274 ± 0.018 |
| AGCCGAGC | -0.0557 ± 0.018 |
| GAGCGAAC | 0.105 ± 0.0055 |
| CGGTATGA | -0.134 ± 0.014 |
| GAGCGTCA | 0.182 ± 0.019 |
| TCAATACA | -0.067 ± 0.06 |
| AATGAAAG | 0.12 ± 0.059 |
| AAGAGTCA | 0.017 ± 0.07 |
| AGCGAGTG | 0.162 ± 0.0084 |
| GTGTGCTA | 0.268 ± 0.025 |
| ATAACACC | 0.457 ± 0.0069 |
| CGTACGGA | -0.197 ± 0.043 |

| Sequence | PBM E-score of 8-mer |
| --- | --- |
| ACTATACC | -0.0642 ± 0.071 |
| CCTAGAGG | -0.104 ± 0.084 |
| AAGTTACT | -0.127 ± 0.0051 |
| GTTGACCA | 0.142 ± 0.036 |
| ATAAGCAG | 0.0253 ± 0.034 |
| ACCCGGGC | 0.111 ± 0.064 |
| GCACGTCC | 0.155 ± 0.0022 |
| ATCCTCGC | 0.207 ± 0.025 |
| CGCGCGCA | 0.247 ± 0.044 |
| TGTTCTAA | -0.191 ± 0.042 |
| AACGGGAC | -0.122 ± 0.0074 |
| CACCCCGA | 0.19 ± 0.078 |
| CTAGTACC | 0.0514 ± 0.022 |
| GTAGGATA | -0.181 ± 0.059 |
| ACGAGAAG | -0.0261 ± 0.057 |
| AATCCACG | -0.0908 ± 0.062 |
| ATGAAGTC | -0.0788 ± 0.023 |
| TAAGCATA | -0.289 ± 0.033 |
| AATATAAC | 0.159 ± 0.031 |
| AAATGGTT | 0.0673 ± 0.072 |
| CGCCCGAC | 0.226 ± 0.012 |
| CAGTCCAA | -0.108 ± 0.083 |
| ACACGAGA | 0.145 ± 0.015 |
| ATGGGCCA | -0.215 ± 0.08 |
| AGACAGCA | -0.0426 ± 0.034 |

| Sequence | PBM E-score of 8-mer |
| --- | --- |
| CATACTCG | 0.105 ± 0.03 |
| ACCGAAAG | -0.193 ± 0.063 |
| AAGTGTTA | 0.451 ± 0.00073 |
| TACTACAA | -0.195 ± 0.015 |
| AGCGGACA | -0.145 ± 0.043 |
| ACATAAAC | 0.0411 ± 0.055 |
| AATAAACC | -0.276 ± 0.034 |
| ATTAACGC | 0.22 ± 0.015 |
| TCGCCAGA | 0.0255 ± 0.017 |
| CTACTCGA | -0.111 ± 0.065 |
| TCACCGAA | 0.0505 ± 0.0053 |
| AATTAGCA | 0.176 ± 0.0027 |
| ACGTGATA | 0.118 ± 0.065 |
| AAAAAAGA | -0.101 ± 0.057 |
| CCCACAGA | -0.122 ± 0.054 |
| GTGGTGGA | 0.0977 ± 0.035 |
| ATCAGATA | -0.0339 ± 0.043 |
| CGGATAGA | -0.1767 ± 0.0013 |
| AGACTAGG | -0.128 ± 0.17 |
| ATCTTAGG | -0.171 ± 0.024 |
| AACCTCGT | 0.0688 ± 0.084 |
| GGTACCTA | -0.209 ± 0.053 |
| CGATTAGA | -0.0265 ± 0.03 |
| CGACTGAA | -0.00792 ± 0.0065 |
| CTGTACTC | -0.143 ± 0.029 |

| Sequence | PBM E-score of 8-mer |
| --- | --- |
| ACCCCCCA | -0.116 ± 0.039 |
| CGCTCCGA | -0.0649 ± 0.052 |
| ACAATGGA | -0.165 ± 0.0037 |
| ACGCTTCC | -0.0414 ± 0.046 |
| GAAAGATA | -0.249 ± 0.031 |
| GGTGGCCA | 0.032 ± 0.039 |
| AATCCGAC | -0.061 ± 0.0046 |
| CGTACTAA | -0.246 ± 0.053 |
| AGTGGGCG | 0.12 ± 0.052 |
| CAAGCGTG | 0.213 ± 0.018 |
| TCTATACA | -0.0907 ± 0.061 |
| GACTAAAC | -0.193 ± 0.029 |
| CCGTCCCA | -0.129 ± 0.0072 |
| ATGATAAT | -0.0559 ± 0.068 |
| ATGCTCGA | -0.162 ± 0.011 |
| GGCCTGGA | -0.38 ± 0.01 |
| CACAAGTC | 0.166 ± 0.039 |
| ACGGATAC | -0.141 ± 0.024 |
| CTTTGACA | 0.174 ± 0.035 |
| CACCAGCC | 0.0355 ± 0.0032 |
| CTTCGCAA | 0.341 ± 0.029 |
| GGGCCATA | -0.153 ± 0.085 |
| TATAGCGA | 0.0409 ± 0.011 |
| AAACATGA | -0.0353 ± 0.018 |
| TCTCTTAA | -0.284 ± 0.033 |

| Sequence | PBM E-score of 8-mer |
| --- | --- |
| ACCGGTAG | -0.036 ± 0.041 |
| GATGGGTA | -0.118 ± 0.033 |
| AAAGTGGC | 0.205 ± 0.025 |
| GCTCATAA | -0.0895 ± 0.047 |
| ATCAGGTC | -0.171 ± 0.075 |
| AATAATCG | 0.0135 ± 0.016 |
| AGTGTCCC | 0.196 ± 0.038 |
| ATCTTCCA | -0.111 ± 0.0036 |
| GCGACTAA | 0.159 ± 0.035 |
| CGGTTGTC | 0.143 ± 0.029 |
| GCCTGTAA | 0.0682 ± 0.055 |
| ATATCTAC | -0.212 ± 0.02 |
| AGCTCGAC | 0.17 ± 0.012 |
| CCCAGGCC | -0.228 ± 0.045 |
| ATTACCTA | 0.00159 ± 0.028 |
| AGTTATAG | -0.135 ± 0.032 |
| ACGTTTGA | 0.106 ± 0.044 |
| GCCAGAAC | -0.137 ± 0.047 |
| CTTGGCAC | 0.354 ± 0.022 |
| CGGGTAGC | 0.0184 ± 0.037 |
| ATATAGCC | -0.196 ± 0.061 |
| CTTGGCCA | -0.143 ± 0.012 |
| AGCTTTAC | -0.0306 ± 0.0074 |
| AGGAAGAA | -0.0826 ± 0.038 |
| GAAAGAAC | -0.155 ± 0.055 |

| Sequence | PBM E-score of 8-mer |
| --- | --- |
| ACGGGGAC | -0.12 ± 0.097 |
| CGTTGACA | 0.414 ± 0.0098 |
| GCCCAGCA | -0.0687 ± 0.0064 |
| AGTGAGAG | 0.3 ± 0.0092 |
| CAGAGACG | -0.143 ± 0.044 |
| AGATAACC | -0.165 ± 0.044 |
| ACTACCAA | -0.0551 ± 0.038 |
| ACCGCGGA | -0.0813 ± 0.0024 |
| ATGGCCGG | -0.25 ± 0.017 |
| CCCGCTCA | 0.0295 ± 0.12 |
| AGAAGGAG | -0.205 ± 0.082 |
| GAGTGATA | 0.159 ± 0.05 |
| AACGCCAA | 0.137 ± 0.0054 |
| GACTGGCA | -0.0276 ± 0.083 |
| AGCAATCG | 0.0752 ± 0.012 |
| CAATTGGG | -0.141 ± 0.014 |
| AGGATTGA | -0.0132 ± 0.059 |
| CTGGGCGC | 0.158 ± 0.046 |
| ACCCAATC | -0.142 ± 0.094 |
| AGAACCAA | -0.11507 ± 4.2e-05 |
| CTCTCTGA | -0.232 ± 0.017 |
| CTAACCGA | -0.116 ± 0.024 |
